Screen size: about 310,000 compounds; about 2,200 (0.71%) showed an effect of 50% or more. Effects have a minus sign here. This is one part of the list.
Molecular target: human ether-à-go-go-related gene (hERG) potassium channel (human, UniProt Q12809)
Assay: primary screen, population patch clamp on CHO cells stably expressing hERG

Sequence of human ether-à-go-go-related gene (hERG) potassium channel (Q12809 whole entry, looked up): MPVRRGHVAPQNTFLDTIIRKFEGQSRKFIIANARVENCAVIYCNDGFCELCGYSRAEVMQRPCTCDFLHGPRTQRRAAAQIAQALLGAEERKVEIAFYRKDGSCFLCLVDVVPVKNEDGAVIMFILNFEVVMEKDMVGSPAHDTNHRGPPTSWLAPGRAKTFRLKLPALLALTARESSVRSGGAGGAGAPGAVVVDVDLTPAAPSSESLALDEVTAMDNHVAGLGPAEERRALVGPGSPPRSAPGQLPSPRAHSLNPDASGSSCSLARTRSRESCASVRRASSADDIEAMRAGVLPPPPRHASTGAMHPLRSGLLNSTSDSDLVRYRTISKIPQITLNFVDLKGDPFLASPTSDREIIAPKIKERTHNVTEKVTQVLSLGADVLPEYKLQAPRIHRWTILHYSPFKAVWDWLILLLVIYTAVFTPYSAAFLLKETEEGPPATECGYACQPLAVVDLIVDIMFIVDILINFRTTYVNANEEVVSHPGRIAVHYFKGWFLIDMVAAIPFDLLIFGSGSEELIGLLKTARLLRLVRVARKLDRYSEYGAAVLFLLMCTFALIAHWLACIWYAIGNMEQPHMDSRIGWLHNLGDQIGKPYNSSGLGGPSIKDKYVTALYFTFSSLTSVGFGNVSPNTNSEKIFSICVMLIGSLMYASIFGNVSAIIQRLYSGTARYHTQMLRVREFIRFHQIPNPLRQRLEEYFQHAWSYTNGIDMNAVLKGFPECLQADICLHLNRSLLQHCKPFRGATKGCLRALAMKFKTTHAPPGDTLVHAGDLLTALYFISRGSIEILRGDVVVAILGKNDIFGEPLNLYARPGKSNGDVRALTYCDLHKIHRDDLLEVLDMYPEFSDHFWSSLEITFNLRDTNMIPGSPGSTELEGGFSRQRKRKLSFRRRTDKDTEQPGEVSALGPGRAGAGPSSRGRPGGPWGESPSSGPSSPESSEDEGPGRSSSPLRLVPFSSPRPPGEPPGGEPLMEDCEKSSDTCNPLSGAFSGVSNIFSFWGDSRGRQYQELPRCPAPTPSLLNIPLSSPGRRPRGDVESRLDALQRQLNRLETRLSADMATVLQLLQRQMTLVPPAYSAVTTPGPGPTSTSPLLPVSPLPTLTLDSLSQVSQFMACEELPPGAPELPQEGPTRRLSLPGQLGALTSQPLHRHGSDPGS

Row | SMILES | hERG current change (%, negative = inhibition) at 1uM [%]
1 | COc1ccc(Cc2nnc(Nc3c(C)cccc3C)o2)cc1OC | 8.63
2 | CCc1nc(SC)[nH]c(=O)c1C | 9.67
3 | c1csc(-c2nnc(COc3ncnc4sccc34)o2)c1 | -0.113
4 | CC1CCN(C(=O)CSc2nnc(Cn3c(=O)sc4ccccc43)n2C)CC1 | -0.706
5 | Cc1cc(C)c(S(=O)(=O)Nc2ccc(N3CCOCC3)cc2)c(C)c1 | 13.5
6 | Cc1cc(=O)n2nc(N3CCCC(C(=O)N4CCc5ccccc54)C3)sc2n1 (centres unmarked) | -13.3
7 | Clc1ccccc1C1=Nn2c(nnc2-c2ccncc2)SC1 | 3.57
8 | COC(=O)c1cccc(Cn2c(Cl)c(/C=N/NC(=O)c3ccco3)sc2=O)c1 | 22.6
9 | NC(=O)c1ccsc1NC(=O)COC(=O)C1CCCN1C(=O)c1cccs1 (centres unmarked) | -33.7
10 | CCn1cc(Br)c(C(=O)Nc2ccc(F)cc2F)n1 | 5.46
11 | Cc1ccc(SCC(=O)NCc2cccnc2)cc1 | 1.62
12 | Brc1cccc(OCCSc2ncccn2)c1 | 15.8
13 | COc1ccc(C(=O)Nc2nc(N3C(=O)c4ccccc4C3=O)n(-c3ccccc3)n2)cc1 | 3.14
14 | Cc1c(C(=O)NCCCN2CCOCC2)sc2nc(-c3ccccc3)cn12 | -13.8
15 | C/C(=N\NC(=O)c1ccccc1O)C1CC1 | 5.92
16 | COc1ccc(Oc2cccc(Cl)c2CNC(=O)CCCC(=O)O)cc1 | 7.74
17 | CC(C)Cc1cc(C(=O)Nc2ccc(Br)cc2)no1 | 6.97
18 | O=C(COC(=O)C12CC3CC(CC(Br)(C3)C1)C2)NNC(=O)c1ccccc1 | 10.7
19 | O=C(COc1ccc(Cl)cc1)NCCNc1ccc([N+](=O)[O-])cc1 | -11.1
20 | O=C(NC(Nc1nc2ccc([N+](=O)[O-])cc2s1)(C(F)(F)F)C(F)(F)F)c1ccccc1 | 1.75
21 | O=C(CCC(=O)N1C[C@H]2C[C@@H](C1)c1cccc(=O)n1C2)NCc1ccccc1 | 6.89
22 | COc1cc(NC(=O)CCCSc2nc(-c3ccco3)cc(C(F)(F)F)n2)cc(OC)c1OC | 5.75

Row | SMILES | hERG current change (%, negative = inhibition) at 1uM [%]
23 | CC(=O)N1CCN(CC(=O)Nc2ccc([N+](=O)[O-])cc2Br)CC1 | -60.4
24 | Cc1ccc(OS(=O)(=O)c2c(C)nn(C)c2Cl)c(C)c1 | 0.411
25 | COc1cccc(-c2nc(CS(=O)(=O)CC(=O)NCCCN3CCN(C)CC3)c(C)o2)c1 | 11.2
26 | O=C(O/N=C\c1ccc(N2CCCCC2)c([N+](=O)[O-])c1)c1c(F)cccc1F | 14.8
27 | Cc1[nH]c2ccccc2c1C(=O)C(=O)N1CC2CC(C1)c1cccc(=O)n1C2 (centres unmarked) | 3.01
28 | C=CCn1c(SCC(=O)NC2CCCC2)nc2scc(-c3ccco3)c2c1=O | 16.5
29 | CCC(C)NC(=O)CS(=O)Cc1nc(-c2ccccc2C)oc1C (centres unmarked) | 12.8
30 | Cc1cccc(OCC(=O)NC(=S)Nc2ccccc2N2CCOCC2)c1C | 0.988
31 | Cc1ccc(SCCNC(=S)Nc2ccc(C)c(C)c2)cc1 | 12.7
32 | O=C(Cc1ccccc1)N1CCN(c2ccc([N+](=O)[O-])cc2)CC1 | -36.4
33 | Brc1c(CSc2nncc3ccccc23)nc2ccccn12 | 8.64
34 | Cc1cc(C)nc(SCc2cc(=O)c(OC(=O)c3ccc(Br)o3)co2)n1 | -2.69
35 | O=C(CCNS(=O)(=O)c1ccccc1C(F)(F)F)N1CCN(C(c2ccccc2)c2ccccc2)CC1 | -2.17
36 | Cc1cc(C)c(S(=O)(=O)Cc2ccccc2)c(OC(C)C)n1 | 3.33
37 | O=C(O)CSc1nnc(-c2ccc3c(c2)OCO3)n1-c1ccccc1 | 7.16
38 | COc1cc2cc(C(=O)N3CCC(Cc4ccccc4)CC3)[nH]c2cc1OC | 15.7
39 | CCC(C)Oc1nc2c(c(=O)n(C)c(=O)n2C)n1C (centres unmarked) | 7.92
40 | Cc1nn(Cc2ccc(Cl)cc2)c(C)c1NC(=O)c1cc(C(C)C)on1 | 9.39
41 | O=C(COc1ccc2c3c(c(=O)oc2c1)CCC3)NC1CCCCC1 | 8.81
42 | O=C1CC(c2cccs2)Sc2nc3ccccc3n21 (centres unmarked) | 5.7
43 | Cc1ccc(N2C(=O)CCC2=O)c(C)c1 | 11.3
44 | CCOc1ccccc1CNC(=O)c1nn(CC)cc1[N+](=O)[O-] | 14.6

— paper PMC4336329 (PLoS ONE, 2015)
